The list shows a part of the results. These are noisy estimates, calculated here from bound and input reads.

The target of this test is T1, Pho4 (S. cerevisiae) (UniProt P07270).
T1 sequence: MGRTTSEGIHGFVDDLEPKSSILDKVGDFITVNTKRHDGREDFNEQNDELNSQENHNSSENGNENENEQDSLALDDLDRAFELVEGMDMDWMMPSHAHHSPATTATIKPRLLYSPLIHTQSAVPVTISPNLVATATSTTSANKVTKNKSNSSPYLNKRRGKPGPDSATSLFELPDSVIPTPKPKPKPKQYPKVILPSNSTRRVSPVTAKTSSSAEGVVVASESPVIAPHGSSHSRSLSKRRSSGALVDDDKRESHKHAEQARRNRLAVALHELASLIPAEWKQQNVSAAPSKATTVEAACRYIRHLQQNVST
As to the kind of experiment: relative binding free energy (BET-seq); higher = weaker binding. The following applies: reference: library average.
With ATAACCACGTGTAGGT, the “relative binding free energy” value was -0.01 kcal/mol. Under CTAAGCACGTGGGAGG stands -0.22 kcal/mol. Regarding TGGGGCACGTGCTTTG, the “relative binding free energy” value is -0.19 kcal/mol. Take GGGGGCACGTGCCTAT: the “relative binding free energy” value was -0.03 kcal/mol. For TACGTCACGTGATTAG, the “relative binding free energy” value is 0.11 kcal/mol.

For GTTATCACGTGCAAGT, the “relative binding free energy” value is 0.16 kcal/mol.

With TCATACACGTGTTTGG, the “relative binding free energy” value is -0.06 kcal/mol. Consider TTGTTCACGTGTGACG, for which the “relative binding free energy” value worked out at 0.22 kcal/mol.

On to TAGGACACGTGAATTG, for which the “relative binding free energy” value was found to be 0.3 kcal/mol.

Turning to TATTGCACGTGGTGTG, the “relative binding free energy” value was -0.13 kcal/mol.

For GGCGGCACGTGAGTTT, the “relative binding free energy” value was found to be 0.23 kcal/mol. The result for TCAGACACGTGTAGGT reads 0.02 kcal/mol; that for CGGCTCACGTGAGTGG, 0.3 kcal/mol; that for TGATACACGTGTATGG, -0.02 kcal/mol.

For the sequence TATTTCACGTGGTTTT, the “relative binding free energy” value was 0.27 kcal/mol. The result for CTTTACACGTGGTTCG reads 0.03 kcal/mol; that for GGCGTCACGTGTGTAA, 0.27 kcal/mol. The result for GTCGTCACGTGGAGGT reads 0 kcal/mol; that for GTAAACACGTGTTAGA, 0.18 kcal/mol. Under ATTTTCACGTGAAACG stands 0.37 kcal/mol; under GCGTACACGTGATATG, 0.27 kcal/mol; under TGGTGCACGTGTAGTC, 0.09 kcal/mol. TAGTACACGTGATTTA: the “relative binding free energy” value is 0.18 kcal/mol.

For TGTGACACGTGTGTCA, the “relative binding free energy” value was determined as 0.04 kcal/mol. Take TCGTTCACGTGGTTTC: the “relative binding free energy” value is 0.35 kcal/mol. Regarding GATTACACGTGACGGT, the “relative binding free energy” value worked out at 0.36 kcal/mol. Under TTGGTCACGTGTTTAA stands 0.08 kcal/mol; under ATGGCCACGTGCGGGG, -0.11 kcal/mol. In the case of AATGTCACGTGTTGCT, the “relative binding free energy” value was -0.06 kcal/mol.

Regarding AAGGGCACGTGTAGTC, the “relative binding free energy” value is -0.09 kcal/mol. The result for GTTGTCACGTGTGAGT reads 0.28 kcal/mol; that for TTATACACGTGGGGAA, 0 kcal/mol; that for GAGATCACGTGTGGGG, 0.24 kcal/mol.

As to TGGACCACGTGGGGGC, the “relative binding free energy” value is -0.27 kcal/mol. Under TAGGCCACGTGGTCGG stands -0.23 kcal/mol; under AGTGTCACGTGTACCG, 0.05 kcal/mol; under TTCAGCACGTGGCGTG, -0.18 kcal/mol.

With AACGTCACGTGGGGGC, the “relative binding free energy” value was -0.08 kcal/mol. As for GGCTACACGTGTATGT, the “relative binding free energy” value was 0.27 kcal/mol.

GTTGACACGTGTTGTA: the “relative binding free energy” value was 0.05 kcal/mol. Under GGTTTCACGTGAGATA stands 0.54 kcal/mol; under TTGTTCACGTGTTTGC, 0.27 kcal/mol.

As for GTATACACGTGGCTGG, the “relative binding free energy” value turned out to be 0 kcal/mol. On to GGTCTCACGTGGGCGA, for which the “relative binding free energy” value is 0.13 kcal/mol. Under AATGGCACGTGCATGG stands -0.24 kcal/mol; under TCATTCACGTGTTAAT, 0.24 kcal/mol; under TGTGACACGTGGGATC, -0.11 kcal/mol.

Take GGATGCACGTGTCTTG: the “relative binding free energy” value was -0.02 kcal/mol. With GTGCGCACGTGTGGGA, the “relative binding free energy” value is -0.19 kcal/mol.

As to AGGGACACGTGTGTAA, the “relative binding free energy” value is -0.01 kcal/mol.

Consider AGGGTCACGTGTATTT, for which the “relative binding free energy” value was 0.27 kcal/mol. The result for TAGTGCACGTGGCAGT reads -0.08 kcal/mol; that for TTGTACACGTGTGTCT, 0.07 kcal/mol.

For TTGAGCACGTGCTTAG, the “relative binding free energy” value was -0.13 kcal/mol. The result for TGACTCACGTGAGTAG reads 0.38 kcal/mol; that for AATTTCACGTGGCGGA, 0.13 kcal/mol.

For the sequence GATTTCACGTGTAGGG, the “relative binding free energy” value was determined as 0.28 kcal/mol.

Turning to TATTCCACGTGGCGGT, the “relative binding free energy” value is 0.11 kcal/mol. The result for ATGGACACGTGAGGCT reads 0.16 kcal/mol; that for AAGGGCACGTGTACTG, -0.17 kcal/mol; that for CATGTCACGTGGGTCG, -0.13 kcal/mol. For the sequence AATGTCACGTGATTTC, the “relative binding free energy” value amounted to 0.23 kcal/mol. Under CTAGTCACGTGGGGGG stands -0.01 kcal/mol; under GATTTCACGTGTTTGA, 0.29 kcal/mol; under AATTTCACGTGTGTAG, 0.27 kcal/mol. Under CGGTTCACGTGTTTTG stands 0.3 kcal/mol; under AGGTGCACGTGAATCG, 0.39 kcal/mol.

Turning to TGGTCCACGTGAGTGA, the “relative binding free energy” value was 0.19 kcal/mol. Take GGGTTCACGTGGCCTG: the “relative binding free energy” value is 0.17 kcal/mol.

Turning to TGTGGCACGTGTACAT, the “relative binding free energy” value is -0.11 kcal/mol. For the sequence GACGGCACGTGAGAGG, the “relative binding free energy” value turned out to be 0.27 kcal/mol. Regarding GGTCGCACGTGCGCGG, the “relative binding free energy” value was -0.04 kcal/mol. Regarding TGTTGCACGTGGCCTG, the “relative binding free energy” value is -0.24 kcal/mol.

On to CAAGTCACGTGGTGTA, for which the “relative binding free energy” value is -0.07 kcal/mol. The result for GCGATCACGTGGTGGT reads 0.11 kcal/mol; that for GTGTACACGTGGTTTC, 0.14 kcal/mol. The result for AGTGGCACGTGTCGTC reads -0.08 kcal/mol. Under AGAGGCACGTGATCGT stands -0.06 kcal/mol; under GATGGCACGTGGGGCC, -0.29 kcal/mol; under TGCTGCACGTGAGGAT, 0.32 kcal/mol. On to GATATCACGTGTGAGT, for which the “relative binding free energy” value was determined as 0.36 kcal/mol. For AGTCACACGTGTGATT, the “relative binding free energy” value stood at 0.06 kcal/mol. For the sequence GTGGTCACGTGGTCTA, the “relative binding free energy” value stood at 0 kcal/mol.

Turning to CATATCACGTGTGGGA, the “relative binding free energy” value turned out to be 0.16 kcal/mol. ATGGACACGTGAGGGC: the “relative binding free energy” value is 0.27 kcal/mol. The result for TCTGCCACGTGTGTTG reads -0.08 kcal/mol; that for TGAGACACGTGATGCG, 0.17 kcal/mol. As to AGGGACACGTGTTGAA, the “relative binding free energy” value is -0.1 kcal/mol. Turning to GGCTGCACGTGGAGTT, the “relative binding free energy” value was 0.15 kcal/mol. The result for TATTACACGTGGGTGA reads -0.06 kcal/mol. As to GCGTGCACGTGGGCGA, the “relative binding free energy” value was -0.19 kcal/mol. Under CTAGGCACGTGGGTGA stands -0.27 kcal/mol; under AAGTACACGTGTGATT, 0 kcal/mol.

Consider ATTGACACGTGAATTG, for which the “relative binding free energy” value was found to be 0.23 kcal/mol. Under GCGATCACGTGTGGGG stands 0.24 kcal/mol. The result for AATATCACGTGGTCGG reads 0.17 kcal/mol. Under ATTGGCACGTGAGTTC stands 0.09 kcal/mol; under TTTTACACGTGCTAGG, 0.09 kcal/mol; under GGGATCACGTGCCTGG, 0.14 kcal/mol. On to TGATGCACGTGGATAT, for which the “relative binding free energy” value is -0.07 kcal/mol. The result for GTGAGCACGTGAGGTA reads 0.27 kcal/mol; that for TTACGCACGTGTTTTA, -0.19 kcal/mol.

For the sequence AGGTCCACGTGTGCGG, the “relative binding free energy” value amounted to 0.04 kcal/mol. With ATTCTCACGTGGATGT, the “relative binding free energy” value came out at 0.15 kcal/mol. Take TGTTTCACGTGTCTTG: the “relative binding free energy” value was determined as 0.16 kcal/mol. AAGGTCACGTGGCTGG: the “relative binding free energy” value was -0.05 kcal/mol. Take CAGGACACGTGGGTGG: the “relative binding free energy” value was -0.08 kcal/mol. For TGTTCCACGTGGGGTT, the “relative binding free energy” value was -0.07 kcal/mol. Regarding TAATGCACGTGGTTTA, the “relative binding free energy” value was -0.11 kcal/mol. The result for CTGTGCACGTGTATGA reads -0.1 kcal/mol. Under GGAGGCACGTGGAGAT stands 0.05 kcal/mol; under AGCTACACGTGGGGTG, -0.03 kcal/mol. The result for TTGGTCACGTGGCTCA reads -0.04 kcal/mol. As for GGCGTCACGTGAGCGT, the “relative binding free energy” value amounted to 0.3 kcal/mol. With GAGGACACGTGCGGTT, the “relative binding free energy” value is -0.01 kcal/mol.
